# Data: the supplement of paper PMC8728848
# The other results are listed elsewhere or left out.
# B1: DC-ASGPR Long (Homo sapiens) (protein)
# chain: MTRTYENFQYLENKVKVQGFKNGPLPLQSLLQRLRSGPCHLLLSLGLGLLLLVIICVVGFQNSKFQRDLVTLRTDFSNFTSNTVAEIQALTSQGSSLEETIASLKAEVEGFKQERQAGVSELQEHTTQKAHLGHCPHCPSVCVPVHSEMLLRVQQLVQDLKKLTCQVATLNNNASTEGTCCPVNWVEHQDSCYWFSHSGMSWAEAEKYCQLKNAHLVVINSREEQNFVQKYLGSAYTWMGLSDPEGAWKWVDGTDYATGFQNWKPGQPDDWQGHGLGGGEDCAHFHPDGGWNDDVCQRPYHWVCEAGLGQTSQESH
# Experiments:
# Assay in all cases: glycan array binding signal (z-score within array); higher = stronger binding
# Details in all cases: glycan notation: IUPAC condensed, linker removed
# [1] = biological target: Gal(b1-3)GlcNAc(b1-2)Man(a1-3)[Gal(b1-3)GlcNAc(b1-2)Man(a1-6)]Man(b1-4)GlcNAc(b1-4)GlcNAc
# Outline: (§1)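 The binding signal is a Z-score computed within each array. Data were drawn from 3228 arrays in the Consortium for Functional Glycomics database, restricted to those with a known protein sequence. Scores were averaged over arrays of the same protein sequence at different concentrations or buffers, and over linkers, and negative values can be taken as non-binding.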
# [2] = biological target: Gal(b1-3)GlcNAc(b1-2)Man(a1-3)[Gal(b1-3)GlcNAc(b1-2)Man(a1-6)]Man(b1-4)GlcNAc(b1-4)[Fuc(a1-6)]GlcNAc
# Outline: as §1
# [3] = biological target: Gal(b1-3)GlcNAc(b1-2)Man(a1-3)[GlcNAc(b1-4)][Gal(b1-3)GlcNAc(b1-2)Man(a1-6)]Man(b1-4)GlcNAc(b1-4)GlcNAc
# Outline: as §1
# [4] = biological target: Gal(b1-3)GlcNAc(b1-2)[Gal(b1-3)GlcNAc(b1-6)]Man(a1-6)[Gal(b1-3)GlcNAc(b1-2)Man(a1-3)]Man(b1-4)GlcNAc(b1-4)GlcNAc
# Outline: as §1
# [5] = biological target: Gal(b1-3)GlcNAc(b1-3)Gal(b1-3)GlcNAc
# Outline: as §1
# [6] = biological target: Gal(b1-3)GlcNAc(b1-3)Gal(b1-4)Glc
# Outline: as §1
# [7] = biological target: Gal(b1-3)GlcNAc(b1-3)Gal(b1-4)GlcNAc
# Outline: as §1
# [8] = biological target: Gal(b1-3)GlcNAc(b1-3)Gal(b1-4)GlcNAc(b1-2)Man(a1-3)[Gal(b1-3)GlcNAc(b1-3)Gal(b1-4)GlcNAc(b1-2)Man(a1-6)]Man(b1-4)GlcNAc(b1-4)GlcNAc
# Outline: as §1
# [9] = biological target: Gal(b1-3)GlcNAc(b1-3)Gal(b1-4)GlcNAc(b1-2)[Gal(b1-3)GlcNAc(b1-3)Gal(b1-4)GlcNAc(b1-6)]Man(a1-6)[Gal(b1-3)GlcNAc(b1-3)Gal(b1-4)GlcNAc(b1-2)Man(a1-3)]Man(b1-4)GlcNAc(b1-4)[Fuc(a1-6)]GlcNAc
# Outline: as §1
# [10] = biological target: Gal(b1-3)GlcNAc(b1-3)Gal(b1-4)GlcNAc(b1-3)Gal(b1-4)GlcNAc(b1-2)[Gal(b1-3)GlcNAc(b1-3)Gal(b1-4)GlcNAc(b1-3)Gal(b1-4)GlcNAc(b1-6)]Man(a1-6)[Gal(b1-3)GlcNAc(b1-3)Gal(b1-4)GlcNAc(b1-3)Gal(b1-4)GlcNAc(b1-2)Man(a1-3)]Man(b1-4)GlcNAc(b1-4)[Fuc(a1-6)]GlcNAc
# Outline: as §1
# [11] = biological target: Gal(b1-3)GlcNAc(b1-3)Gal(b1-4)GlcNAc(b1-6)[Gal(b1-3)GlcNAc(b1-3)]Gal(b1-4)Glc
# Outline: as §1
# [12] = biological target: Gal(b1-3)GlcNAc(b1-3)Gal(b1-4)[Fuc(a1-3)]GlcNAc
# Outline: as §1
# [13] = biological target: Gal(b1-3)GlcNAc(b1-3)Gal(b1-4)[Fuc(a1-3)]GlcNAc(b1-6)[Gal(b1-3)GlcNAc(b1-3)]Gal(b1-4)Glc
# Outline: as §1
# [14] = biological target: Gal(b1-3)GlcNAc(b1-3)GalNAc
# Outline: as §1
# [15] = biological target: Gal(b1-3)GlcNAc(b1-6)Gal(b1-4)GlcNAc
# Outline: as §1
# [16] = biological target: Gal(b1-3)GlcNAc(b1-6)GalNAc
# Outline: as §1
# [17] = biological target: Gal(b1-3)GlcNAc(b1-6)[Gal(b1-3)]GalNAc
# Outline: as §1
# Gal(b1-3)GlcNAc6S = biological target: Gal(b1-3)GlcNAc6S
# Outline: as §1
# [18] = biological target: Gal(b1-3)[Fuc(a1-4)]GlcNAc
# Outline: as §1
# [19] = biological target: Gal(b1-3)[Fuc(a1-4)]GlcNAc(b1-2)Man
# Outline: as §1
# [20] = biological target: Gal(b1-3)[Fuc(a1-4)]GlcNAc(b1-2)Man(a1-3)[Gal(b1-3)[Fuc(a1-4)]GlcNAc(b1-2)Man(a1-6)]Man(b1-4)GlcNAc(b1-4)[Fuc(a1-6)]GlcNAc
# Outline: as §1
# [21] = biological target: Gal(b1-3)[Fuc(a1-4)]GlcNAc(b1-3)Gal(b1-3)[Fuc(a1-4)]GlcNAc
# Outline: as §1
# [22] = biological target: Gal(b1-3)[Fuc(a1-4)]GlcNAc(b1-3)Gal(b1-4)[Fuc(a1-3)]GlcNAc
# Outline: as §1
# [23] = biological target: Gal(b1-3)[Fuc(a1-4)]GlcNAc(b1-6)GalNAc
# Outline: as §1
# [24] = biological target: Gal(b1-3)[GlcNAc(b1-6)]GalNAc
# Outline: as §1
# [25] = biological target: Gal(b1-3)[Neu5Ac(a2-6)]GalNAc
# Outline: as §1
# [26] = biological target: Gal(b1-3)[Neu5Ac(a2-6)]GlcNAc(b1-4)Gal(b1-4)Glc
# Outline: as §1
# [27] = biological target: Gal(b1-3)[Neu5Ac(b2-6)]GalNAc
# Outline: as §1
# Gal(b1-4)Gal = biological target: Gal(b1-4)Gal
# Outline: as §1
# [28] = biological target: Gal(b1-4)GalNAc(a1-3)[Fuc(a1-2)]Gal(b1-4)GlcNAc
# Outline: as §1
# [29] = biological target: Gal(b1-4)GalNAc(b1-3)[Fuc(a1-2)]Gal(b1-4)GlcNAc
# Outline: as §1
# Gal(b1-4)Glc = biological target: Gal(b1-4)Glc
# Outline: as §1
# Gal(b1-4)Glc6S = biological target: Gal(b1-4)Glc6S
# Outline: as §1
# Gal(b1-4)GlcNAc = biological target: Gal(b1-4)GlcNAc
# Outline: as §1
# [30] = biological target: Gal(b1-4)GlcNAc(a1-6)Gal(b1-4)GlcNAc
# Outline: as §1
# Gal(b1-4)GlcNAc(b1-2)Man = biological target: Gal(b1-4)GlcNAc(b1-2)Man
# Outline: as §1
# [31] = biological target: Gal(b1-4)GlcNAc(b1-2)Man(a1-3)Man(b1-4)GlcNAc(b1-4)GlcNAc
# Outline: as §1
binder,measurement,setting,value
B1,glycan array binding signal (z-score),[1],-0.257
same,glycan array binding signal (z-score),[2],-0.41
same,glycan array binding signal (z-score),[3],-0.269
same,glycan array binding signal (z-score),[4],-0.336
same,glycan array binding signal (z-score),[5],-0.372
same,glycan array binding signal (z-score),[6],-0.067
same,glycan array binding signal (z-score),[7],0.888
same,glycan array binding signal (z-score),[8],0.05
same,glycan array binding signal (z-score),[9],0.579
same,glycan array binding signal (z-score),[10],0.397
same,glycan array binding signal (z-score),[11],-0.123
same,glycan array binding signal (z-score),[12],-0.285
same,glycan array binding signal (z-score),[13],-0.888
same,glycan array binding signal (z-score),[14],-0.262
same,glycan array binding signal (z-score),[15],-0.371
same,glycan array binding signal (z-score),[16],5.68
same,glycan array binding signal (z-score),[17],-0.373
same,glycan array binding signal (z-score),Gal(b1-3)GlcNAc6S,-0.521
same,glycan array binding signal (z-score),[18],-0.18
same,glycan array binding signal (z-score),[19],-0.238
same,glycan array binding signal (z-score),[20],-0.252
same,glycan array binding signal (z-score),[21],0.122
same,glycan array binding signal (z-score),[22],-0.126
same,glycan array binding signal (z-score),[23],1.47
same,glycan array binding signal (z-score),[24],-0.509
same,glycan array binding signal (z-score),[25],-0.084
same,glycan array binding signal (z-score),[26],-0.32
same,glycan array binding signal (z-score),[27],0.101
same,glycan array binding signal (z-score),Gal(b1-4)Gal,-0.034
same,glycan array binding signal (z-score),[28],-0.345
same,glycan array binding signal (z-score),[29],-0.39
same,glycan array binding signal (z-score),Gal(b1-4)Glc,-0.188
same,glycan array binding signal (z-score),Gal(b1-4)Glc6S,-0.258
same,glycan array binding signal (z-score),Gal(b1-4)GlcNAc,-0.154
same,glycan array binding signal (z-score),[30],0.015
same,glycan array binding signal (z-score),Gal(b1-4)GlcNAc(b1-2)Man,-0.23
same,glycan array binding signal (z-score),[31],-0.201
